Measured values published in publication PMC12136788.
The other results are listed elsewhere or left out.

T1: UNK ZnF1-3 (human, UniProt Q9C0B0 31-174)
T1 sequence: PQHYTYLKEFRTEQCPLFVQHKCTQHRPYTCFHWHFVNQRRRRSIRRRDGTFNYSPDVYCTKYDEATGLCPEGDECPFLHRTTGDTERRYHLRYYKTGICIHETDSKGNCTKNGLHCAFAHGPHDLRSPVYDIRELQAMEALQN

B1: chr7:65705475:65705476:+_ENSG00000169902_ENST00000304842|hu_hu|hu_hu_hu_mus_True|18_48 (ssRNA)
RNA: GGGAGUUCUACAGUCCGACGAUCUCUAUUCGGUGAUGGCACUCCAUGGCAUGCUGGCCCAGGUAAAACACGGUCACAGAACUAAUCACCAGACAUGCCAAGAGUAAGUUCUGCUUCAGCUUUCCAACCAUCUUGAUGUGGUUACAACAGAGGAUUGAGCAUCA
B2: chr11:46405157:46405158:+_ENSG00000110492_ENST00000395566|hu_mus|FALSE|FALSE (ssRNA)
RNA: GGGAGUUCUACAGUCCGACGAUCCCCUCCCCACUUUGGGCACUUGGUGUGGGCGUGAGAGGACAGGCGUGAUUGACAGAGCUGACAGGAAGACAAAAGGCACUGGUGGGUUAUAUCUUGGGCCUGUGGGAGAGGAGGGCUCCGCAACAGAGGAUUGAGCAUCA
B3: chr5:140076784:140076785:+_ENSG00000112855_ENST00000230771|hu_hu|motif|central (ssRNA)
RNA: GGGAGUUCUACAGUCCGACGAUCCCCAGCCUGAGUUGGGGUCUGCAGCAGCACUGCUUCAUAGAUCACUCCUGUAUAGUAGUCGGGGCCCCGAGCCAGGCUGAGGUCAAAGGAGAUCUUAUCAGCAAUUCCAAAUAAAGUCAGCAACAGAGGAUUGAGCAUCA
B4: chr17:6138058:6138059:+_ENSMUSG00000034377_ENSMUST00000152672|mus_mus|FALSE|FALSE (ssRNA)
RNA: GGGAGUUCUACAGUCCGACGAUCAAGCCCUUCCCUCAAGCAGAGGUGGAGGCCUGCGGGUCACUGAGUAUGAAUAAACUGCUAUCUAAAUGGACCAAGUAGUUUCCUCAGUUUGGUCCUACUUCUUGCUUACACAGACUAGGCCAACAGAGGAUUGAGCAUCA
B5: chrX:123197699:123197700:+_ENSG00000101972_ENST00000371157|hu_hu|FALSE|FALSE (ssRNA)
RNA: GGGAGUUCUACAGUCCGACGAUCUGUGUGCUUCUCUACAAUAUUCCGGAUCUGUCGCAAUAAGGCAUCCAAAUGCUUUUCUAAUCGUCCAGUGGUAUAUAUUUCCAAAUCAAAGUACUGAGGCAACUGCAACAAGUUAGUCACCAACAGAGGAUUGAGCAUCA
B6: chr6:128323885:128323886:+_ENSMUSG00000001517_ENSMUST00000073316|mus_mus|FALSE|FALSE (ssRNA)
RNA: GGGAGUUCUACAGUCCGACGAUCAGGGUCCUCCUCCAGGCCAGGGAAACUGAUGUCUAGAAGGAUCUUGCUGAGGCUAUCAUUCAUUGUGUCCAGGACAAGGCCUUCUGUGAGAGAACGGUUGGCUGAAAGGCUGGGAAUCUGCAACAGAGGAUUGAGCAUCA
B7: chr15:55677894:55677895:-_ENSG00000260916_ENST00000569205|hu_hu|motif|central (ssRNA)
RNA: GGGAGUUCUACAGUCCGACGAUCUGAACAUUCUGGGGCGGGCUCACAGCUGUCAGUGGGGGUCACAGAAUUCAACAUUUCGGUAUCUGACCCCUCAUGACUGAUGACAGUCCAACCACAAGAUGAAUCACUGUCACUGGAAUUCAACAGAGGAUUGAGCAUCA
B8: chr1:21151686:21151687:-_ENSG00000075151_ENST00000400422|hu_mus|FALSE|FALSE (ssRNA)
RNA: GGGAGUUCUACAGUCCGACGAUCUAAAAAGUCCUUCCAGCUGAGGUCAGCCUCCCUCCACAGGGCGCCUACUUUCUUAUGGCUCAUUUGUCUGCAUAGAAGGUGUAGGAUUUCAGAAAGCAGGACCCCAGCUCUGCCAACAGGCAACAGAGGAUUGAGCAUCA
B9: chr16:22014287:22014288:+_ENSMUSG00000022855_ENSMUST00000023561|mus_hu|FALSE|FALSE (ssRNA)
RNA: GGGAGUUCUACAGUCCGACGAUCAGAGUUCGAAAAUACCUCUCCUGAAGGGGCCACAUUCCGUGUUCCAUUACAAGCAGAAGUUACCAUGGGCUUUGUGGUCAGCUGGAAUGGGAAUCCAAAUAAGCUGGCAGCAUUGUAGAGCAACAGAGGAUUGAGCAUCA
B10: chr13:85337103:85337104:+_ENSMUSG00000021548_ENSMUST00000022030|mus_hu|FALSE|FALSE (ssRNA)
RNA: GGGAGUUCUACAGUCCGACGAUCGUCGAUGAGGAAGCCCUCAAAUGGUCUGUAAGGAUUGUGGACAAUAAGGUGGAAAUUAAGUUGCUGUAUAAGAAGUAGUUCAUAUUCCAGUAUCUGUUCAAGUGCCUUCUCCUGUCCAAGCAACAGAGGAUUGAGCAUCA
B11: 134435293_134446391_554_3pUTR_ENSMUSG00000034723_ENSMUST00000038228|mouse|control|control (ssRNA)
RNA: GGGAGUUCUACAGUCCGACGAUCACCAGCCAUUCCAGACAUCGUUAGAGAGGCUGGGGACUUCCAGCCAGUGAGAGGCUCAACUGAUUGCCAUUUCUUCUCUAAUAUGUAAUUCUGUAAAUCUUCAUAGAUUCCUGGACCACGCAACAGAGGAUUGAGCAUCA
B12: chr2:78712580:78712581:+_ENSMUSG00000027011_ENSMUST00000028398|mus_hu|motif|central (ssRNA)
RNA: GGGAGUUCUACAGUCCGACGAUCAUUAGGAGGAGGAUCAAGGGUUAUUUCAGCUAGCUCCUUCUGAAUUCUUUUAGCACGGGUGGAUAACUUAGCAGUGGUUUUGCUAGAGAGUUUGGUGUUUUUCUUCUGCUGGGUGGCAGACAACAGAGGAUUGAGCAUCA
B13: chr2:203071746:203071747:-_ENSG00000116030_ENST00000392246|hu_mus|FALSE|FALSE (ssRNA)
RNA: GGGAGUUCUACAGUCCGACGAUCCACAAACCUGAAAAUGCACAGUCCUGAAAAGGGUGGCCUCUCUGUGCACACAUGAAAUCUCUUAAAGGAAAAAGGGCAGUAUUAAGGGAGCUGAGGUCUGAUCACCAAAAAUCAGCACAACAACAGAGGAUUGAGCAUCA
B14: chr4:41262718:41262719:+_ENSG00000154277_ENST00000284440|perfect_dup|FALSE|FALSE (ssRNA)
RNA: GGGAGUUCUACAGUCCGACGAUCCCCGAUGGUACCACAGGAGUUUCCGAUGGUCUGCUUCAUGAAGUAAACUUUAGGGCUAACUUCCUGUCCCUUCAGUUCCUCAAUUUGCUUUUUCCUGAAGUUUUCAUGCUGGGCCGUGAGCAACAGAGGAUUGAGCAUCA
B15: 13578621_13578741_1134_3pUTR_ENSMUSG00000042742_ENSMUST00000045235|mouse|control|control (ssRNA)
RNA: GGGAGUUCUACAGUCCGACGAUCGAAGUGUUAGAAUACUCCUCCUCUUCUACACUGUUGAAAUCUUGAGGAAUAUACAACAUCCCUGGAUAGUUCCUGCUAACCAAGUCACUUGUGGUUUUAAGGGAGGUUUUUCUAAAAGCCCAACAGAGGAUUGAGCAUCA
B16: 91870421_91871422_641_CDS_ENSG00000001631_ENST00000394505|human|control|control (ssRNA)
RNA: GGGAGUUCUACAGUCCGACGAUCUCUCUUUUUUUUCUGUCCUUCAAUGGGAACUUCAUGCAACAAAAUUUCAUAUGACUUAGCUCUGUAUUCCCGAGAAUUGAGACUGGCAGUAUUCUUUGGACGAAUAACAGCAACAUAUGCCAACAGAGGAUUGAGCAUCA
B17: chr7:109302599:109302600:-_ENSMUSG00000063550_ENSMUST00000070165|mus_mus|motif|central (ssRNA)
RNA: GGGAGUUCUACAGUCCGACGAUCAGAGUCAUCUUCUCCAUCCUGCUGAUUGUUCUCAUCAACAGGUUUGCUCAGGAAGCGGAAUCUUUCUCCAUUUUCUGGAUACUCAGAGGGUGAAGCUAGAUCUUCUGAAUCAUGAUUAACCAACAGAGGAUUGAGCAUCA
B18: chr2:198365819:198365820:+_ENSG00000115541_ENST00000409468|hu_mus|motif|central (ssRNA)
RNA: GGGAGUUCUACAGUCCGACGAUCAGUUUCGGCAGCACUCCUUUCAACCAAUACUCUGUCAAAGAGCGGAAGAAACUUCCGGAAAGCUUGUCCAGCCAUGACUCUCGCCUUCGCCGCCACCACCGCAGCUCCGGACUCUGAACUCAACAGAGGAUUGAGCAUCA
B19: chr9:100852126:100852127:+_ENSMUSG00000037286_ENSMUST00000129269|mus_mus|motif|central (ssRNA)
RNA: GGGAGUUCUACAGUCCGACGAUCGCCAUGCUCAGACUCAGGUUCCUGAAUCUGCUCUCCCAUGGGACGGCUGUUUUCUCGGAGUACCGUGGAGGUGAGCUGUGGGGUUGGCAAGGGUCCAGGAGUCUGAAUCAUCGUGUCAGUCAACAGAGGAUUGAGCAUCA
B20: chr9:15470827:15470828:-_ENSG00000164985_ENST00000397519|hu_mus|motif|central (ssRNA)
RNA: GGGAGUUCUACAGUCCGACGAUCGUCAAGGGCACACCUGCCCCAGUUUUCAAGAACGUAAUAGCUACUCCAGUUUAAUACCGGGCUUCAAAACAAAAUGAUUUUCAUAUUCUCUAAGUGAGAUAAUGUACAGUCGCCGUCUUCCAACAGAGGAUUGAGCAUCA
B21: chr19:16212804:16212805:+_ENSG00000167460_ENST00000300933|hu_mus|hu_hu_hu_mus_False|88_88 (ssRNA)
RNA: GGGAGUUCUACAGUCCGACGAUCAACAAUUCUGGAGUGAAGGAAAGCAUCAAGGAUGAACAGCAUUAAAGCUCAGUCAGAAGGCACAUGGGCAACAAUGAUCACCCCAGCAUUCUCGCUUGGAAUGCUUAAAGACAAUCUGUUCAACAGAGGAUUGAGCAUCA
B22: chr2:126738436:126738437:-_ENSMUSG00000027366_ENSMUST00000028844|mus_hu|motif|central (ssRNA)
RNA: GGGAGUUCUACAGUCCGACGAUCAGGCAUGAGGCACACACUCAUUACUGAGAAAUAGAUCAGUUUUGGUACUCUGAUGACGGCUGGCAACUUUUCAUUAUUUCCAAAAGGUCCAGCUGCGAGUUCAACCAUGAUACUCUCACCCAACAGAGGAUUGAGCAUCA

Target: T1, UNK ZnF1-3
Assay: nsRBNS (natural sequence RNA bind-n-seq); RBNS binding buffer (assumed for nsRBNS): 25 mM Tris pH 7.5, 150 mM KCl, 3 mM MgCl2, 0.01% Triton X-100, 500 ug/ml BSA, 20 U/ml SUPERase-In, 4 C; UNK is unkempt and MSI1 is Musashi-1; names of the RNAs are library labels; protein concentration not given here; high values mean tight binding

| Binder | binding signal [enrichment R] |
| --- | --- |
| B1 | 0.43 |
| B2 | 2.26 |
| B3 | 0.57 |
| B4 | 0.75 |
| B5 | 1.52 |
| B6 | 1 |
| B7 | 0.589 |
| B8 | 0.773 |
| B9 | 1.29 |
| B10 | 1.26 |
| B11 | 1.17 |
| B12 | 1.2 |
| B13 | 1.72 |
| B14 | 0.857 |
| B15 | 0.814 |
| B16 | 1.16 |
| B17 | 0.527 |
| B18 | 1.34 |
| B19 | 1.04 |
| B20 | 0.677 |
| B21 | 1.5 |
| B22 | 1.22 |
